ChEMBL document CHEMBL4888484, “Replenishing the malaria drug discovery pipeline: Screening and hit evaluation of the MMV Hit Generation Library 1 (HGL1) against asexual blood stage Plasmodium falciparum ,using a nano luciferase reporter read-out” (2022)
About 540 (0.36%) of roughly 150,000 compounds showed an effect of 50% or more. The list shows a part of the results.

System: Plasmodium falciparum
Test: Primary screen in NF54 nanoGlo assay, in single point, at 2uM, 72h; a lower Z score goes with more inhibition
Format: functional, Erythrocyte
Conditions: timepoint 72 hour

Structure (SMILES)	% Inhibition [%]	Z score
O=C(N[C@H]1CCCC[C@@H]1F)N1CCCO1	-11	1.27
Cc1ccc[n+](-c2nc3ccccc3nc2[N-]S(=O)(=O)c2ccc(Cl)cc2)c1	28	-3.17
O=C(O)C1C2CCCC2CN1C(=O)c1cccc(-c2ccoc2)c1 (stereo not drawn)	-12	2.34
CN(C)c1ccc(C(=O)N2CCN(c3nc4nccc(-c5cccc(C(F)(F)F)c5)n4n3)CC2)cc1	2	-0.24
Cc1cc(N[C@H]2CCNC2=O)nn1-c1ccc(Cl)cc1Cl	3	-0.32
CC1(C2CC2)CCN(Cc2cc(C(=O)O)co2)CC1	-5	0.64
CC(C)Oc1ccc(-c2nc(C(=O)O[C@H](C#N)C3CC3)cs2)cc1	-9	1.08
COCC(=O)NC1(CC2CC2)CCN(S(=O)(=O)c2ccccc2)CC1	-8	1.59
C[C@H](NC(=O)CN1C(=O)CCn2nc(-c3ccc(Cl)cc3)cc21)c1ccccc1	-14	1.76
Cc1ccc2c(c1)C(c1ccccc1)=Nc1ccc(C)cc1C(c1ccccc1)=N2	7	-0.71
CCn1cnnc1[C@H](C)NC(=O)Cn1cc(C)cn1	1	-0.27
[O-][S+]1CCN(c2ccc3nccnc3n2)CC1	3	-0.37
COC[C@@H]1[C@H](NC(=O)c2cc(C)c(-c3ccccc3)s2)[C@H]2CCO[C@H]21	-6	0.99
CN(C)C(=O)CN1C(=O)[C@@H]2CC[C@H]1CN(C(=O)c1ccc3ccccc3c1)C2	-11	1.72
Cc1nc(O)nc(C)c1CCC(=O)N1CC[C@@](O)(C2CCOCC2)[C@H](C)C1	-3	0.46
CCn1cc(-c2nc(CC(=O)N3CCN(c4ccccc4)CC3)cs2)c2cccnc21	-7	1.29
Cc1cc(C)c(C#N)c(N2CC[C@@]3(CCCN(CC4CCC4)C3=O)C2)n1	-6	1.28
Cc1cc(-c2nc(-c3ccccn3)no2)on1	-7	1.17
O=C(NC1CCCCC1)C1CCCCC1	-11	1.46
CC[C@@H](C(=O)N(C)Cc1cc(C2CC2)on1)n1cccn1	4	-0.81
CC(C)(C)c1ccc(S(=O)(=O)NCC(F)(F)CO)s1	-12	1.57

Structure (SMILES)	% Inhibition [%]	Z score
O=C(C[C@@H]1CCN2C[C@@H]1/C=C\COc1ccccc1CNCC2=O)NC1CC1	-3	0.53
Cc1cccc(C(=O)N2CCC(c3ccn4ncc(C(=O)N5CCOCC5)c4c3)CC2)c1	-8	1.36
O=c1ccn(Cc2cc(C3CC3)no2)c2c(OC(F)(F)F)cccc12	-3	0.29
Cc1noc([C@@H]2CCN(C(=O)CCc3c(C)noc3C)CCN2C(=O)C2CCCC2)n1	-17	2.22
CC(C)[C@@H]1N(C(=O)NCc2ccc(Cn3ccnc3)cc2)CC12CC=CC2	-10	1.34
CCOC(CCNC(=O)N1CCCC2CN(C)CCC21)C(C)C (stereo not drawn)	-9	1.18
Cc1cccn2cc(CN3C[C@H](O)[C@@H](F)C3)nc12	-6	1.23
Cc1cc(CN2CCC[C@@H]2C(F)F)n(C)n1	-3	0.35
Cc1nc2sc(C(=O)Nc3cnc4ccccc4c3)c(N)c2c(C)c1C	-11	1.5
O=C(CCC(F)(F)F)N1CCN(C(=O)c2ccc3[nH]cnc3c2)CC1	-1	0.07
CC(=O)N[C@@H](C)C(=O)N(Cc1ccccc1)CC(F)F	-2	0.21
O=C(c1cc(-c2ccc(F)cc2)c[nH]1)N1CCC(N2CC(=O)N(C3CC3)C2=O)CC1	2	-0.18
O[C@H]1[C@H](n2cc(-c3ccsc3)nn2)c2ccccc2C12CCNCC2	0	0.02
CCC(CC)NS(=O)(=O)c1cc(OC)ccc1OC	-15	2.31
Cc1ccc(CCC(=O)NCc2ccc(N3CCS(=O)(=O)CC3)cc2)cc1	-7	1.01
Cc1cccnc1CNC(=O)[C@H]1CC(=O)N(CCN2CCOCC2)C1	2	-0.25
O=C(Nc1ccccc1)N1CCC(c2nnc(-c3ccco3)o2)CC1	11	-1.45
CC1=C(C(=O)NCCC(F)(F)F)Cn2nnnc2N1C	0	0.01
Cc1cccc2oc(C(=O)N3CC[C@@]4(O)C[C@H]4C3)cc12	-12	1.48
CN(C)C[C@]12CN(C(=O)COc3ccccc3)C[C@H]1CN(C(=O)c1ccccc1)C2	-15	2.07
O=C(c1cc2ncc(CCO)cn2n1)N1C[C@H]2CCC[C@@H]1C2	-5	0.94

Structure (SMILES)	% Inhibition [%]	Z score
CC(C)c1ocnc1C(=O)N1CC(=O)Nc2cnccc21	1	-0.16
COc1cccc(-c2cc(C(=O)NCc3cncc(N4CCCC4=O)c3)n(C)n2)c1	-6	1.22
CC(C)CN(CCC(=O)NCc1ccccc1)c1nc(-c2ccccc2)nc2cc(Cl)ccc12	5	-0.82
Cc1oc(-c2ccccc2)c(C(=O)NCCNS(C)(=O)=O)c1C	-8	1.09
Cc1nn(C)c(C)c1CCC(=O)N(C)c1cc(C#N)ccn1	-11	1.59
Cc1c(NC(=O)N(C)c2ccccc2)c(=O)n(-c2ccccc2)n1C	-2	0.21
CCC(=O)Nc1ccc2c(c1)cc(C(=O)Nc1ccc(C(F)(F)F)cc1)n2Cc1ccc(C(C)(C)C)cc1	2	-0.26
CCc1noc(C)c1C(=O)N1CCN(C)C[C@@H]1C	-14	2.16
COCCc1noc(-c2ccccc2OC2CN(C(=O)CCn3nc(C)cc3C)C2)n1	11	-1.26
Cc1cc(N)n(CC(=O)N2CCn3cccc3C2)n1	-5	0.75
O=C(NC[C@H]1CCCN(Cc2ccco2)C1)c1ccncc1Cl	8	-1.03
CC(=O)N1CCCC[C@@H]1CCS(=O)(=O)N1CCN(C)c2cc(Cl)ccc21	-9	1.72
NC(=O)CNC(=O)CCc1cc(Cl)ccc1Br	3	-0.37
O=C(NCc1cc2n(n1)CCCO2)c1cnn(C2CCC2)c1	-5	0.63
Cc1nc(N2CCCC2)n(Cc2ccncc2)c(=O)c1C	11	-1.06
CCOc1ccccc1C(=O)N1CC2(C[C@H](CC(=O)NCc3ccncc3)CO2)C1	-1	0.1
Cc1nc(-c2ccc(S(=O)(=O)Cl)cc2)c(C)o1	-17	2.34
COc1ccc(N2CCN(c3ncccc3-c3nc(-c4ccccc4)no3)CC2)cc1	17	-1.95
CCOc1cc2c(cc1CNCc1cccc(CO)c1)CCC2	-21	2.13
CCCCN1CCN(C(=O)NCc2noc(CCOC)n2)CC1	0	0.05
CCCn1cc(CNS(=O)(=O)c2ccsc2C#N)nn1	-6	0.69

Structure (SMILES)	% Inhibition [%]	Z score
Cc1nnc(NC2CCCCC2)n(C)c1=O	-2	0.24
CCN1CCN(CCC(=O)N[C@H]2CCc3ccccc32)CC1	-15	2.3
Cc1ncc2c(c1-c1noc(Cn3nc4ccccc4n3)n1)CCNC2	-9	1.52
O=C(Nc1cccs1)O[C@H]1COCCN(c2nc3ccccc3o2)C1	-12	1.5
O=S(=O)(c1ccccc1)N1CCN(S(=O)(=O)c2ccc(Cl)cc2)C1	38	-4.86
O=C(Nc1ccc2c(c1)OCCO2)c1ccc2nccnc2n1	-45	5.31
O=C(NC1CCC1)c1ccc(S(=O)(=O)NCc2ccccn2)cc1	-2	0.3
COc1ccc2oc(CNC(=O)c3cc4c(n(C)c3=O)CCCC4)nc2c1	-13	2.15
CC[C@@H]1OC2(CCN(Cc3ccc(Br)cc3Cl)CC2)NC1=O	-5	0.83
O=C(NCCc1ccsc1)c1ccncc1	9	-1.37
Cc1cc(C)nc(CN(C)c2nccc(N3CCC[C@H](O)C3)n2)c1	-10	1.65
Cc1sc(NC(=O)c2cn(Cc3cccnc3)nn2)nc1-c1ccc(F)cc1	-3	0.37
Cc1noc(COC2CCN(C(=O)c3n[nH]c4ccccc34)CC2)n1	0	0.04
O=C(NCC1(COc2ccccc2)CC1)[C@H]1C[C@H]2C=C[C@@H]1C2	-17	1.98
O=C(Cn1cc(C(=O)N2CCc3ccncc32)cn1)NC1CCCCC1	3	-0.47
Cc1ccncc1C(=O)N[C@@H](C)c1cnn(-c2ccccc2C)c1C	9	-1.19
CN(C)[C@H]1[C@@H]2CC[C@H]1CN(Cc1ccccc1Cn1cccn1)C2	-8	1.45
O=C(CC1CC1)N(Cc1c(F)cccc1F)C1CC1	1	-0.16
CC(C)c1ccc([C@@]2(C(F)(F)F)Cc3c(C#N)cccc3O2)cc1	-27	3.16
CN(C)c1ccc(CNS(=O)(=O)c2ccc(-c3cc(C(F)(F)F)on3)o2)cc1	-13	2.18
CC[C@@H](C(=O)NCC1(COc2ccccc2)CC1)n1cccn1	1	-0.06
